In the antibiotic and cytotoxicity screens of Wong et al. (2023):
This is one part of the list.

Key:
HSkMC = human skeletal muscle cells; test: cytotoxicity call (relative viability < 0.9); details: 10 µM
HepG2 = test: cytotoxicity call (relative viability < 0.9); details: 10 µM
S. aureus RN4220 = test: growth inhibition call (relative growth <= 0.2); details: 50 µM

Structure (SMILES)	cytotoxicity call (HSkMC)	cytotoxicity call (HepG2)	growth inhibition call (S. aureus RN4220)
C[C@H]1CN([C@@H](C)CO)C(=O)Cc2cc(NS(=O)(=O)c3cccs3)ccc2O[C@@H]1CN(C)S(=O)(=O)c1ccccc1	inactive	inactive	inactive
C/C=C/c1ccc2c(c1)O[C@@H](CN(C)S(=O)(=O)c1ccc(F)cc1)[C@@H](C)CN([C@@H](C)CO)S2(=O)=O	inactive	inactive	inactive
COCC#Cc1ccc2c(c1)O[C@@H](CN(C)S(=O)(=O)c1ccc(F)cc1)[C@H](C)CN([C@H](C)CO)S2(=O)=O	inactive	inactive	inactive
COC(=O)C[C@](O)(CCCC(C)(C)O)C(=O)O[C@@H]1C(OC)=C[C@]23CCCN2CCc2cc4c(cc2[C@H]13)OCO4	active	active	inactive
O=C(C[C@@H]1C=C[C@H](NC(=O)c2cccnc2)[C@H](CO)O1)NCCN1CCCCC1	inactive	inactive	inactive
Cc1noc(C)c1S(=O)(=O)Nc1ccc2c(c1)C(=O)N([C@@H](C)CO)C[C@H](C)[C@@H](CN(C)Cc1ccc(C(F)(F)F)cc1)OCCCC[C@H](C)O2	inactive	inactive	inactive
COC(=O)c1c2oc(c1C(=O)OC)C(=O)N[C@H](Cc1ccccc1)Cn1cc(nn1)[C@@H](Cc1ccccc1)NC(=O)N[C@@H](CO)CC2	inactive	inactive	inactive
COCC#Cc1ccc2c(c1)O[C@@H](CN(C)S(=O)(=O)c1ccc(F)cc1)[C@@H](C)CN([C@@H](C)CO)S2(=O)=O	active	inactive	inactive
CC(C)=CCc1c(O)cc2oc(C)cc(=O)c2c1O	inactive	inactive	inactive
CO[C@H](CN(C)S(=O)(=O)c1cccc(Cl)c1)[C@@H](C)CN([C@@H](C)CO)S(=O)(=O)c1ccc(Cl)cc1	inactive	inactive	inactive
CN1CCN(C(=O)C[C@@H]2CC[C@H]3[C@@H](COC[C@@H](O)CN3C(=O)C3CC3)O2)CC1	inactive	inactive	inactive
C[C@@H]1CN([C@H](C)CO)C(=O)c2cc(NC(=O)Nc3cccc4ccccc34)ccc2O[C@@H]1CN(C)C(=O)Nc1ccc(C(F)(F)F)cc1	inactive	inactive	inactive
C[C@@H]1CCCCO[C@@H](CN(C)Cc2ccc(C(F)(F)F)cc2)[C@@H](C)CN([C@@H](C)CO)C(=O)c2cc(NC(=O)c3ccccc3)ccc2O1	inactive	inactive	inactive
Cc1noc(C)c1NC(=O)N(C)C[C@@H]1Oc2ccc(NC(=O)c3ccncc3)cc2CC(=O)N([C@@H](C)CO)C[C@H]1C	inactive	inactive	inactive
C[C@@H]1CN([C@@H](C)CO)C(=O)c2cc(NC(=O)CCN3CCOCC3)ccc2O[C@H]1CN(C)S(=O)(=O)c1ccc(F)cc1	inactive	inactive	inactive
CO[C@H]1CN(C)C(=O)c2ccc(NS(=O)(=O)CC(F)(F)F)cc2OC[C@@H](C)N(C(=O)NC(C)C)C[C@@H]1C	inactive	inactive	inactive
CC(C)NC(=O)Nc1ccc2c(c1)CC(=O)N([C@@H](C)CO)C[C@@H](C)[C@@H](CN(C)S(=O)(=O)c1ccc(F)cc1)O2	inactive	inactive	inactive
CO[C@H]1CN(C)C(=O)c2ccc(NS(=O)(=O)c3cn(C)cn3)cc2OC[C@@H](C)N(CC2CC2)C[C@H]1C	inactive	inactive	inactive
C[C@H]1CN([C@@H](C)CO)C(=O)c2cc(NC(=O)Cn3cnnn3)ccc2O[C@H]1CN(C)C(=O)NC1CCCCC1	inactive	inactive	inactive
Cc1ccc(S(=O)(=O)N(C)C[C@@H]2Oc3ncc(Br)cc3C(=O)N([C@H](C)CO)C[C@H]2C)cc1	inactive	inactive	inactive
COCC#Cc1ccc2c(c1)O[C@H](CN(C)S(C)(=O)=O)[C@H](C)CN([C@H](C)CO)S2(=O)=O	inactive	inactive	inactive
C[C@H](CO)N1C[C@H](C)[C@@H](CN(C)CC2CC2)OCCCC[C@H](C)Oc2ccc(NC(=O)CCCCCC(=O)Nc3ccccc3N)cc2C1=O	inactive	inactive	inactive
C[C@H](CO)N1C[C@H](C)[C@H](CN(C)C(=O)Nc2ccc(C(F)(F)F)cc2)Oc2ccc(NC(=O)Nc3ccccc3)cc2C1=O	active	inactive	inactive
COc1ccc2c3c(n(c2c1)C)[C@H](CO)N(C[C@]13CN(C1)S(=O)(=O)c1cn(cn1)C)C(=O)Nc1ccc(cc1)F	inactive	inactive	inactive
C[C@@H]1CN([C@H](C)CO)C(=O)c2cc(NC(=O)Nc3ccc(C(F)(F)F)cc3)ccc2O[C@H]1CN(C)Cc1ccc(C(=O)O)cc1	inactive	inactive	inactive
COc1cccc(NC(=O)N2C[C@H](O)COC[C@@H]3O[C@H](CC(=O)NCc4ccccc4F)CC[C@H]32)c1	inactive	inactive	inactive

Structure (SMILES)	cytotoxicity call (HSkMC)	cytotoxicity call (HepG2)	growth inhibition call (S. aureus RN4220)
CC(C)CC#Cc1ccc2c(c1)O[C@H](CN(C)C(=O)Cc1ccccn1)[C@@H](C)CN([C@H](C)CO)S2(=O)=O	inactive	inactive	inactive
CSc1nc(Cl)cc(Cl)n1	inactive	inactive	inactive
C[C@H](CO)N1C[C@H](C)[C@H](CN(C)S(=O)(=O)c2ccc(F)cc2)Oc2ncc(-c3cccc(C(=O)N(C)C)c3)cc2C1=O	inactive	inactive	inactive
C[C@@H]1CN([C@H](C)CO)C(=O)Cc2cc(NC(=O)Nc3ccc(F)cc3)ccc2O[C@@H]1CN(C)C(=O)Nc1ccc(C(F)(F)F)cc1	inactive	inactive	inactive
C[C@H](CO)N1C[C@H](C)[C@@H](CN(C)Cc2ccc(Oc3ccccc3)cc2)Oc2c(NS(=O)(=O)c3ccc(F)cc3)cccc2C1=O	inactive	inactive	inactive
Cc1ccc(S(=O)(=O)N(C)C[C@@H]2OCCCC[C@@H](C)Oc3ccc(NC(=O)C4CCCCC4)cc3C(=O)N([C@@H](C)CO)C[C@H]2C)cc1	inactive	inactive	inactive
COc1oc(C(=O)NC2CCCCC2)c(-c2ccc(Cl)cc2)c1S(=O)(=O)c1cccc(Cl)c1	inactive	inactive	inactive
C[C@@H]1CCCCO[C@@H](CN(C)C(=O)Nc2ccccc2)[C@@H](C)CN([C@@H](C)CO)C(=O)c2cc(NC(=O)Cc3ccccc3)ccc2O1	inactive	inactive	inactive
C[C@H](CO)N1C[C@H](C)[C@@H](CN(C)S(=O)(=O)c2cccc(C#N)c2)OCc2cn(nn2)CCCC1=O	inactive	inactive	inactive
CCC(=O)N[C@@H]1CC[C@H](CC(=O)OC)O[C@@H]1CO	inactive	inactive	inactive
COc1ccc(C#Cc2ccc3c(c2)[C@]2(C(=O)N3)[C@H](c3ccccc3OCCO)N3[C@H](c4ccccc4)[C@H](c4ccccc4)OC(=O)[C@H]3[C@@H]2C(=O)N2CCc3cc(OC)c(OC)cc3C2)cc1	inactive	inactive	inactive
C[C@@H]1CCCCO[C@H](CN(C)C(=O)C2CCCCC2)[C@H](C)CN([C@H](C)CO)C(=O)c2cc(NC(=O)CCC(F)(F)F)ccc2O1	inactive	inactive	inactive
C[C@@H]1CN([C@@H](C)CO)C(=O)Cc2cc(NC(=O)Cc3ccccc3)ccc2O[C@@H]1CN(C)S(=O)(=O)c1cn(C)cn1	inactive	inactive	inactive
C[C@H](CO)N1C[C@H](C)[C@H](CN(C)S(=O)(=O)c2cn(C)cn2)Oc2ccc(NS(C)(=O)=O)cc2C1=O	inactive	inactive	inactive
C[C@@H]1CN([C@@H](C)CO)C(=O)c2cc(NC(=O)C3CC3)ccc2O[C@H]1CN(C)C(=O)NC1CCCCC1	inactive	inactive	inactive
C[C@@H]1CCCCO[C@@H](CN(C)C(=O)Nc2ccc(F)cc2)[C@@H](C)CN([C@@H](C)CO)C(=O)c2cc(NC(=O)Nc3ccc(C(F)(F)F)cc3)ccc2O1	inactive	inactive	inactive
O=S(=O)(NCCCN(C/C=C/c1ccc(F)cc1)C/C=C/c1ccc(F)cc1)c1cccc2cnccc12	inactive	inactive	inactive
C[C@H]1CN([C@@H](C)CO)C(=O)Cc2cc(NS(=O)(=O)c3cn(C)cn3)ccc2O[C@H]1CN(C)Cc1ccccc1	inactive	inactive	inactive
COc1cc(/C=C/c2cc(/C=C/c3ccc(O)c(OC)c3)n(Cc3ccc4c(c3)OCO4)c(=S)n2)ccc1O	inactive	inactive	inactive
COc1ccc(NC(=O)N(C)C[C@@H]2OCCCC[C@H](C)Oc3ccc(NC(=O)C4CCCCC4)cc3C(=O)N([C@H](C)CO)C[C@@H]2C)cc1	inactive	inactive	inactive
Cc1ccc(S(=O)(=O)N(C)C[C@H]2OCCCC[C@H](C)Oc3ccc(NC(=O)NC4CCCCC4)cc3C(=O)N([C@H](C)CO)C[C@@H]2C)cc1	inactive	inactive	inactive
C[C@H](CO)N1C[C@H](C)[C@H](CN(C)S(=O)(=O)c2ccc(Cl)cc2)OCCCC[C@H](C)Oc2ccc(NC(=O)Nc3ccc(C(F)(F)F)cc3)cc2C1=O	inactive	active	inactive
C[C@@H]1CN([C@H](C)CO)C(=O)c2cc(NC(=O)Nc3ccc(C(F)(F)F)cc3)ccc2O[C@@H](C)CCCCO[C@H]1CN(C)S(C)(=O)=O	inactive	active	inactive
O=C(CCCCCNC(=O)OCc1ccc(CO[C@@H]2C[C@H](c3ccc(Br)cc3)C=C(C(=O)N3CCN(Cc4ccc5c(c4)OCO5)CC3)O2)cc1)NO	inactive	inactive	inactive
COc1ccc(COC[C@]23N=C4SCCCN4[C@H](c4ccccc4O2)[C@H]3CO[Si](C)(C)C(C)(C)C)cc1	inactive	active	inactive
C[C@@H]1CN([C@@H](C)CO)C(=O)Cc2cc(NC(=O)C3CCCCC3)ccc2O[C@@H]1CN(C)Cc1ccc(Oc2ccccc2)cc1	inactive	inactive	inactive
